Drawing on the supplement of paper PMC9446081, this text covers relative growth for 38 compounds.

The campaign covered roughly 39,000 compounds. About 220 (0.56%) showed activity. The list shows a part of the results.
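Further: static incubation at 37 °C against the wild-type strain, values averaged over two biological replicates.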

The subject of this test is Escherichia coli K-12 BW25113. Nature of the test: relative growth (OD600 normalised to plate interquartile mean) (fraction); higher = less growth inhibition, active = 0.2 or less. The settings on record: 50 µM; LB; incubation time: overnight (16-24 h).
As for `CN(C)CC#Cc1ccc([C@@H]2[C@@H](CO)N3CCCCN(C(=O)CN(C)C)C[C@H]23)cc1`, the relative growth is inactive: 0.979.

In the case of `C[C@@H]1CN([C@@H](C)CO)C(=O)Cc2cc(NS(=O)(=O)c3cccs3)ccc2O[C@H]1CN(C)Cc1ccc(-c2ccccc2)cc1`, the relative growth was inactive: 0.982.

Regarding `COc1ccccc1-c1cnc2c(c1)C(=O)N([C@@H](C)CO)C[C@H](C)[C@@H](CN(C)C(=O)c1ccncc1)O2`, the relative growth is inactive: 1.01.

Take `CC(C)C#Cc1cnc2c(c1)C(=O)N([C@@H](C)CO)C[C@H](C)[C@@H](CN(C)S(=O)(=O)c1cn(C)cn1)O2`: the relative growth was inactive: 0.971.

Take `COc1ccc(CN(C)C[C@@H]2Oc3c(NC(=O)c4cc(C)nn4C)cccc3C(=O)N([C@H](C)CO)C[C@@H]2C)cc1`: the relative growth is inactive: 0.982.

For the compound `C[C@H](CO)N1C[C@H](C)[C@@H](CN(C)C(=O)Nc2ccc(F)cc2)Oc2ccc(NC(=O)Nc3ccc(C(F)(F)F)cc3)cc2C1=O`, the relative growth is inactive: 0.959.

Turning to `O=C(C[C@H]1C[C@@H]2c3cc(NS(=O)(=O)c4ccc(F)cc4)ccc3O[C@@H]2[C@@H](CO)O1)NCc1ccccc1`, the relative growth is inactive: 1.03.

`COc1ccc2c3c([nH]c2c1)[C@@H](CO)N(C[C@]13CCN(CC1)Cc1ccccc1F)S(=O)(=O)c1cn(cn1)C`: the relative growth is inactive: 0.976.

For `O=C1COC(=O)N1C1CCNCC1`, the relative growth was inactive: 1.

In the case of `C=CCOC(=O)[C@H]1[C@@H]2C(=O)O[C@@H](c3ccccc3)[C@@H](c3ccccc3)N2[C@@H](c2ccc(OCCOC(=O)[C@H]3C[C@H]4C(=O)N[C@@H](Cc5ccccc5)C(=O)N4[C@H]3c3ccc(O)cc3)cc2)[C@]12C(=O)Nc1ccccc12`, the relative growth was inactive: 1.08.

Consider `C[C@@H]1CCCCO[C@@H](CN(C)Cc2ccc3c(c2)OCO3)[C@@H](C)CN([C@H](C)CO)C(=O)c2cc(NS(=O)(=O)c3cccs3)ccc2O1`, for which the relative growth was inactive: 1.02.

As to `CC(C)NC(=O)Nc1ccc2c(c1)C(=O)N([C@H](C)CO[Si](C)(C)C(C)(C)C)C[C@@H](C)[C@H](CN(C)S(=O)(=O)c1ccc(Cl)cc1)O2`, the relative growth was inactive: 1.

`Cc1ccccc1NCC(=O)NN`: the relative growth was inactive: 1.04.

For the compound `CC(C)NC(=O)Nc1ccc2c(c1)CC(=O)N([C@H](C)CO)C[C@@H](C)[C@@H](CN(C)S(=O)(=O)c1ccc(F)cc1)O2`, the relative growth is inactive: 1.01.

For `COc1ccc(NC(=O)Nc2ccc3c(c2)C(=O)N([C@H](C)CO)C[C@@H](C)[C@H](CN(C)S(=O)(=O)c2ccc(C)cc2)OCCCC[C@@H](C)O3)cc1`, the relative growth was inactive: 1.01.

As to `C/C=C/c1cccc(-c2nc(C(=O)NCc3ccccc3)cc3c2[C@H](CCO)N([S@@](=O)C(C)(C)C)C3)c1`, the relative growth is inactive: 1.02.

For `C[C@H]1CN([C@@H](C)CO)C(=O)c2cc(NC(=O)Nc3ccc(C(F)(F)F)cc3)ccc2O[C@@H]1CN(C)Cc1ccncc1`, the relative growth was inactive: 1.01.

As to `Cc1ccc(S(=O)(=O)N(C)C[C@@H]2OCCCC[C@H](C)Oc3ccc(NS(=O)(=O)c4ccc(Cl)cc4)cc3C(=O)N([C@@H](C)CO)C[C@H]2C)cc1`, the relative growth was inactive: 1.03.

Regarding `C[C@@H]1CCCCO[C@H](CN(C)S(C)(=O)=O)[C@@H](C)CN([C@@H](C)CO)C(=O)c2cc(NC(=O)Nc3cccc4ccccc34)ccc2O1`, the relative growth is inactive: 1.

Take `C[C@@H]1CN([C@@H](C)CO)S(=O)(=O)c2ccc(-c3ccc(F)cc3)cc2O[C@H]1CN(C)S(C)(=O)=O`: the relative growth was inactive: 0.998.

For `N[C@@H]1CONC1=O`, the relative growth is inactive: 0.987.

Turning to `C[C@@H]1CN([C@@H](C)CO)C(=O)c2cc(NC(=O)C3CCCCC3)ccc2O[C@@H](C)CCCCO[C@@H]1CN(C)CC1CCCCC1`, the relative growth is inactive: 0.997.

Take `Oc1c(Cl)cc(Cl)cc1Sc1cc(Cl)cc(Cl)c1O`: the relative growth is inactive: 0.202.

As to `C[C@@H]1CN([C@H](C)CO)C(=O)c2cccc(NS(C)(=O)=O)c2O[C@@H]1CN(C)Cc1ccc(C(=O)O)cc1`, the relative growth was inactive: 0.986.

Regarding `O=C(C[C@@H]1C=C[C@@H](NC(=O)CN2CCOCC2)[C@H](CO)O1)NCCc1ccncc1`, the relative growth is inactive: 0.993.

Consider `Cc1ccc(S(=O)(=O)N(C)C[C@@H]2Oc3c(NS(C)(=O)=O)cccc3C(=O)N([C@@H](C)CO)C[C@H]2C)cc1`, for which the relative growth is inactive: 0.995.

Regarding `C[C@@H]1CN([C@@H](C)CO)C(=O)Cc2cc(NC(=O)Nc3ccc(C(F)(F)F)cc3)ccc2O[C@@H]1CN(C)Cc1ccc(-c2ccccc2)cc1`, the relative growth was inactive: 1.01.

For the compound `Cc1noc(C)c1S(=O)(=O)Nc1ccc2c(c1)C(=O)N([C@H](C)CO)C[C@H](C)[C@H](CN(C)C(=O)Nc1cccc3ccccc13)OCCCC[C@H](C)O2`, the relative growth was inactive: 1.02.

`COc1ccc(S(=O)(=O)N(C)C[C@@H]2Oc3ccc(NC(=O)c4ccncc4)cc3CC(=O)N([C@H](C)CO)C[C@@H]2C)cc1`: the relative growth was inactive: 0.995.

With `CC(C)CNC(=O)C(=O)NC[C@H]1OCCN1S(=O)(=O)c1ccc2c(c1)OCCO2`, the relative growth is inactive: 1.01.

`C[C@@H]1CN([C@@H](C)CO)C(=O)Cc2cc(NS(C)(=O)=O)ccc2O[C@H]1CN(C)S(=O)(=O)c1ccc(Cl)cc1`: the relative growth was inactive: 1.02.

With `COc1ccc(S(=O)(=O)N[C@H]2C=C[C@H](CC(=O)NCCc3ccncc3)O[C@H]2CO)cc1`, the relative growth is inactive: 1.01.

Turning to `O=C(C[C@@H]1CC[C@H](NC(=O)C2CC2)[C@@H](CO)O1)NCCCN1CCOCC1`, the relative growth is inactive: 0.987.

In the case of `COc1ccccc1NC(=O)N(C)C[C@@H]1Oc2cc(Br)ccc2S(=O)(=O)N([C@H](C)CO)C[C@H]1C`, the relative growth was inactive: 1.

With `Cc1cc(C(=O)Nc2cccc3c2O[C@@H](CN(C)C(=O)NC2CCCCC2)[C@@H](C)CN([C@@H](C)CO)C3=O)n(C)n1`, the relative growth is inactive: 1.

As to `C[C@H]1CN([C@@H](C)CO)C(=O)Cc2cc(NS(=O)(=O)c3ccc(Cl)cc3)ccc2O[C@@H]1CN(C)Cc1ccc(-c2ccccc2)cc1`, the relative growth is inactive: 0.918.

As to `C[C@@H]1CN([C@@H](C)CO)C(=O)Cc2cc(NS(=O)(=O)c3cccs3)ccc2O[C@H]1CN(C)S(=O)(=O)c1ccccc1`, the relative growth is inactive: 0.937.

As for `Cc1noc(C)c1NC(=O)N(C)C[C@H]1Oc2c(NS(=O)(=O)c3cn(C)cn3)cccc2C(=O)N([C@H](C)CO)C[C@H]1C`, the relative growth is inactive: 0.975.
